Experimental data from PMC10188589.
These are yes or no findings as the source states them, for the method shown. Binding seen in cells or lysates may run through a third protein. Sequences can lack the tags named with a protein.

Target: T1, HA-cGAS (human), Q8N884
T1 chain: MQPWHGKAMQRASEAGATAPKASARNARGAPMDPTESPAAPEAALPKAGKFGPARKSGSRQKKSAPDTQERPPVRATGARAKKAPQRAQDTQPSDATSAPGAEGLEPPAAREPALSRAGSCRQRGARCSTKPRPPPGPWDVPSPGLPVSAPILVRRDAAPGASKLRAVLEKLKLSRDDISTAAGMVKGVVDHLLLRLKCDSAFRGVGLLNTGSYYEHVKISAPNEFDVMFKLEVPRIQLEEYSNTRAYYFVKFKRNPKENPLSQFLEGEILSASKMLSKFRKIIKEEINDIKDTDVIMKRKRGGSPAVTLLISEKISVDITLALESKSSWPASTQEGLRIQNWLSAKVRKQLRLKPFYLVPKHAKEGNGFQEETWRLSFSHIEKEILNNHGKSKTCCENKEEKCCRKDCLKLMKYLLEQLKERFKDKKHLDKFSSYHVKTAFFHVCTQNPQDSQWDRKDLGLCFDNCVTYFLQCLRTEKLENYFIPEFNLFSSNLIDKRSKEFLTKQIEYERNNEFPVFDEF
Assay: co-IP; HA immunoprecipitation from lysates of HEK293T cells co-expressing HA-cGAS and GFP-PRMT constructs; EBC lysis buffer (50 mM Tris pH 7.5, 120 mM NaCl, 0.5% NP-40), 4 °C, four washes with NETN buffer; immunoblot
Settings: remark: other sources report otherwise

- binding: no binding
B1: GFP-PRMT3, O60678 1-531 (enzyme)
chain: MCSLASGATGGRGAVENEEDLPELSDSGDEAAWEDEDDADLPHGKQQTPCLFCNRLFTSAEETFSHCKSEHQFNIDSMVHKHGLEFYGYIKLINFIRLKNPTVEYMNSIYNPVPWEKEEYLKPVLEDDLLLQFDVEDLYEPVSVPFSYPNGLSENTSVVEKLKHMEARALSAEAALARAREDLQKMKQFAQDFVMHTDVRTCSSSTSVIADLQEDEDGVYFSSYGHYGIHEEMLKDKIRTESYRDFIYQNPHIFKDKVVLDVGCGTGILSMFAAKAGAKKVLGVDQSEILYQAMDIIRLNKLEDTITLIKGKIEEVHLPVEKVDVIISEWMGYFLLFESMLDSVLYAKNKYLAKGGSVYPDICTISLVAVSDVNKHADRIAFWDDVYGFKMSCMKKAVIPEAVVEVLDPKTLISEPCGIKHIDCHTTSISDLEFSSDFTLKITRTSMCTAIAGYFDIYFEKNCHNRVVFSTGPQSTKTHWKQTVFLLEKPFSVKAGEALKGKVTVHKNKKDPRSLTVTLTLNNSTQTYGLQ
